The values below come from the RNAGym collection of RNA variant scans (doi:10.7554/elife.90254).

The source gives no read counts; variants with many changes may rest on few reads.

B1: LINE1-full (parent)
chain: UACGUAGGUGGUUUUCCCCUGAUAGUGCUAAGGGGGCCUGGAAGUUUGGACUGGGCAGAGCUCAACACAGCGUGGCAAAGUGGCUGUGGCUAGACUGCCUCUCUGGAUUCCUCGUCACUCAGCAGGGCAUCUCUGAGAGAAAUGCC

This data set covers variants of B1. The experiment in a line: self-cleavage, relative activity (ratio to wild type); higher = more cleavage; in vitro, sequencing; the parent is a self-cleaving ribozyme.
On to U96C U134C A141G, for which the self-cleavage was 0.03.

For the variant A79G G82A C113A, the self-cleavage amounted to 1.48.

Take U85C U100C U115A: the self-cleavage turned out to be 0.15.

Regarding U91A A121U A124U, the self-cleavage is 0.61.

As to A79G U112C A138U, the self-cleavage turned out to be 1.06.

For the variant A79G U112C A138G, the self-cleavage is 1.41.

Turning to A79G U112C C145U, the self-cleavage worked out at 0.65.

On to U81A A117G U132C C133A, for which the self-cleavage is 1.08.

Consider U85C U96A A117U A141G, for which the self-cleavage came to 0.07.

Take G86U U112C A142G: the self-cleavage turned out to be 0.03.

For the variant U91A A141G G144A, the self-cleavage came out at 1.12.

As for U87A U96A U108C, the self-cleavage amounted to 0.11.

As to U85C U100C C131G, the self-cleavage stood at 0.

With A79G U87A G105A, the self-cleavage is 0.08.

Take C84U A107G C133U U143C: the self-cleavage was found to be 0.17.

In the case of U85C G127U A138G, the self-cleavage was 0.03.

Regarding U96G C98A U109C, the self-cleavage is 0.16.

As for A92U A117G U119C, the self-cleavage came out at 0.

With A79G A92G U115C, the self-cleavage amounted to 0.

With U96C U115A A117G, the self-cleavage is 0.19.

For the variant U100A A117C A142G, the self-cleavage was 1.44.

In the case of U81A U85C U87C A141G A142G, the self-cleavage turned out to be 0.26.

Regarding G82A U104A C120A A121G, the self-cleavage amounted to 1.9.

In the case of A79U C110A U143G, the self-cleavage stood at 1.78.

As for C90A U130C A136G, the self-cleavage was determined as 0.02.

Turning to C99U G122A U132C U143A, the self-cleavage is 0.46.

U85C U100A G122A: the self-cleavage was 0.08.

Turning to G93A U100C U108C G127U, the self-cleavage is 0.

As to U81C U100C A142G, the self-cleavage came out at 0.74.

For A78U U100C A138G, the self-cleavage stood at 2.87.

Turning to U81A U96C U112A, the self-cleavage worked out at 0.12.

For the variant U81A U87G U100C, the self-cleavage was 0.65.

Consider G82A U96C U104A A117U, for which the self-cleavage came out at 0.05.

Turning to U81A U102C U112C, the self-cleavage came to 1.

For A94G U115A A142G, the self-cleavage was 0.34.

Turning to A79G U115C U143C, the self-cleavage was 1.2.

Regarding C90A A92G U134C, the self-cleavage came out at 0.06.

For the variant U85A U96C A141G, the self-cleavage was 0.3.

Consider U85C A94U U115C A124G, for which the self-cleavage is 0.

As to U81C U132A A136G, the self-cleavage amounted to 2.47.

As for U87A U112C G125U, the self-cleavage was found to be 0.06.

For the variant G82A C101A A141G, the self-cleavage stood at 2.3.

For U81A U112G A138G, the self-cleavage stood at 2.34.

As to U87C U104C G105U, the self-cleavage is 0.

As to U81A U102C U112C U115A A121G, the self-cleavage stood at 0.

In the case of U96C U109A U130C, the self-cleavage amounted to 0.14.

Take A78U U102A A141G: the self-cleavage amounted to 2.15.

As for U100A U102C A140U, the self-cleavage was 1.61.

U81C U102A U104C: the self-cleavage turned out to be 0.

Take G89A U96C G122U A142G: the self-cleavage was determined as 0.08.

Consider A79G U109A U132C, for which the self-cleavage was 1.28.

In the case of A79U U81A U85C U115A, the self-cleavage was determined as 0.3.

U85C U104A C128U: the self-cleavage was 0.15.

Regarding U100A A136G A140U, the self-cleavage is 1.21.

In the case of U85A A136G A138G, the self-cleavage is 0.2.

In the case of A79G A117G A141G, the self-cleavage was found to be 0.

On to U91C A92U U143C, for which the self-cleavage is 0.37.

With A79G U112C C120A, the self-cleavage stood at 0.78.

For the variant A79U A129G U132C, the self-cleavage amounted to 1.59.

For the variant A92G U112A U132C, the self-cleavage worked out at 0.06.

As to C90A A136G A138G, the self-cleavage was found to be 0.

For the variant A78U A124U U130C, the self-cleavage was 2.99.

Take U87C G106C A121U: the self-cleavage turned out to be 0.2.

Turning to U81A G89A U104A U112C, the self-cleavage is 0.03.

In the case of U85C A92U C116A, the self-cleavage was determined as 0.09.

On to A92U U108C G125U, for which the self-cleavage is 0.97.

For the variant G93U C128U U132C, the self-cleavage turned out to be 0.02.

As to U96C A107G U143C, the self-cleavage came to 0.1.

Turning to A79G U85C U100C, the self-cleavage was 0.

Take U81A U85A U119G: the self-cleavage turned out to be 0.08.

With U81A A94G U119C A129U, the self-cleavage came out at 0.

Consider G93U U132C C146U, for which the self-cleavage was 0.03.

For the variant U87A A94G U112C A138G, the self-cleavage turned out to be 0.12.

For the variant U96C U100C A121U, the self-cleavage came out at 0.48.

Take U96A U112C U115C: the self-cleavage was found to be 0.2.

Regarding A79G U85A U91C U119A, the self-cleavage stood at 0.08.

Take U96A U115C G126A A138G: the self-cleavage turned out to be 0.07.

On to U87C G97A U115A, for which the self-cleavage came to 0.04.

For the variant A92C A138G A141G, the self-cleavage turned out to be 0.18.

On to G86A U102C U132C, for which the self-cleavage stood at 0.03.

As to U81G U108C A121U, the self-cleavage worked out at 1.46.

Consider G97A G126U U132C A136G, for which the self-cleavage was determined as 0.35.

Consider C95U A136G U143C, for which the self-cleavage came out at 0.42.

With G82A U85A A121C, the self-cleavage amounted to 0.12.

On to C98U U112A A117G U119C, for which the self-cleavage turned out to be 1.05.

Regarding A78U U96G U134C, the self-cleavage is 0.23.

As to U85C A121C A140U U143C, the self-cleavage was 0.17.

As to A79G U91A A117C A141U, the self-cleavage turned out to be 0.84.

With C90A A94G U108A U109C, the self-cleavage was found to be 0.11.

Regarding A94G G126U A129C, the self-cleavage amounted to 0.46.

Regarding U85A U100C A140G, the self-cleavage was found to be 0.12.

U87A U130C A136G: the self-cleavage stood at 0.05.

On to A94U A107G A141G, for which the self-cleavage came out at 0.21.

In the case of U96C G97A U115C, the self-cleavage was determined as 0.

On to A79C U100C U112C, for which the self-cleavage worked out at 0.84.

A79U A117G A140G: the self-cleavage was 2.09.

U85C U102C A121G C123U: the self-cleavage turned out to be 0.18.

As for A92G A117G U143C, the self-cleavage was determined as 0.

Take U85C G125A A129U: the self-cleavage amounted to 0.15.

Regarding U85C A121U A140G, the self-cleavage came out at 0.

For the variant A92G A117U A136G, the self-cleavage was 0.1.

U81C C90U A138C: the self-cleavage turned out to be 0.06.

As for U81C A121G A141G, the self-cleavage stood at 2.66.

On to U85A A92G U109C, for which the self-cleavage is 0.18.

Take A92G U119A U132A: the self-cleavage came out at 0.22.

Consider U87A A129U U143C, for which the self-cleavage is 0.07.

For A94G G105A G125A, the self-cleavage came out at 0.24.

For the variant U85C A121U A142G, the self-cleavage came to 0.11.

Regarding A92G U100C A141G, the self-cleavage stood at 0.

For the variant U85C U112C G114A U119C, the self-cleavage is 0.11.

For U91C A94G A140G, the self-cleavage came to 0.16.

As for G82A U100C U104C A136G, the self-cleavage amounted to 2.67.

Consider U85A A121C U143C, for which the self-cleavage turned out to be 0.1.

Consider A94U A138G U143A, for which the self-cleavage amounted to 0.33.

Regarding U85A A94G U104C, the self-cleavage was 0.15.

Turning to A79G U96A U132C, the self-cleavage is 0.04.

As for G86A U104C A117G, the self-cleavage was determined as 0.15.

Regarding C90U C120U A138G A142G, the self-cleavage is 0.12.

As to U81A G82A U85C A138G A142G C146U, the self-cleavage amounted to 0.72.

Take U85C U87C A140G: the self-cleavage worked out at 0.

Regarding U91A A94U U109A, the self-cleavage was 0.06.

Regarding U85G U115A U119A A140G, the self-cleavage stood at 0.27.

For the variant A79U U109C U115A A141G, the self-cleavage came to 2.18.

In the case of A78U U91A U102C A141G, the self-cleavage was 0.7.

In the case of U85C U143C C145U, the self-cleavage amounted to 0.26.

Consider U96C U108A A136G, for which the self-cleavage amounted to 0.

Turning to U85C U87G A129G, the self-cleavage came to 0.

Turning to U87A U108C U115C A138U, the self-cleavage is 0.14.

Regarding U81C U96A A121U, the self-cleavage turned out to be 0.08.

Consider U81C A138G A141G, for which the self-cleavage was 1.04.

In the case of G82A G93A G144A, the self-cleavage came out at 0.05.

Turning to U85C U112A A136G, the self-cleavage came to 0.5.

For the variant A79G U104A G127A A141U, the self-cleavage was determined as 0.81.

For U81C U100C C118A G127C A140G, the self-cleavage was 2.43.

As to G93A C131U A136G A140G C145U, the self-cleavage was found to be 0.

With U87C A124G A140G, the self-cleavage amounted to 0.16.

In the case of U91A A92G U108C, the self-cleavage is 0.09.

U85C U115A A117U A142G: the self-cleavage was found to be 0.12.

In the case of A94G A136G C145G, the self-cleavage came to 0.34.

As for A94G A107U A129G, the self-cleavage came to 0.19.

Regarding C99A A138G U143C, the self-cleavage is 0.78.

With C84A U102C G114A, the self-cleavage is 0.09.

In the case of A94U A117G U130C, the self-cleavage came out at 0.38.

A79U U102C A117U: the self-cleavage amounted to 1.7.

With U81G U96A U104A A107G U109A, the self-cleavage was determined as 0.

On to C95G U132C A142G, for which the self-cleavage was 0.05.

As to A94C U96C C98U, the self-cleavage was determined as 0.05.

On to U100A U112C A136G, for which the self-cleavage amounted to 1.17.

Regarding U87C A107G U130C A141G, the self-cleavage came to 0.34.

As to A92G G93U A124U, the self-cleavage came to 0.02.

For the variant U96G A117G U143C, the self-cleavage amounted to 0.

Take G89A G97A U115C: the self-cleavage came to 0.03.

As to C99A U104C U130C, the self-cleavage came to 0.28.

Consider G97A U100C U134C, for which the self-cleavage stood at 0.21.

Take A94G A129G A136G: the self-cleavage came out at 0.

On to A94U U96C C101U, for which the self-cleavage was 0.03.

In the case of A94G G125U A142G, the self-cleavage was found to be 0.22.

For the variant U85A C103U U143C, the self-cleavage turned out to be 0.05.

With G97A A107G U109C A138G, the self-cleavage is 0.

Turning to C95U U119C A124U, the self-cleavage came out at 0.26.

For U85A U108C C123A, the self-cleavage is 0.04.

For A79G U87A A107G A138G, the self-cleavage worked out at 0.

Regarding A79G A107U U132A A142G, the self-cleavage turned out to be 0.61.

On to A92G C113U U119A, for which the self-cleavage was found to be 0.15.

Consider U81C U115A G135A, for which the self-cleavage was 0.21.

Regarding C95U G114A A136G, the self-cleavage amounted to 0.06.

On to U96A U112C A117U A142G, for which the self-cleavage worked out at 0.07.
